Measured values taken from patent US12605390B2, “Treatment of cancer and inhibition of metastasis” (Celex Oncology Innovations Limited, priority 2017, dated 2026).
Read-outs that look alike come from different tables or passages of the source.

Test system: FLG 29.1 cells
Assay: Matrigel invasion assay, leukaemic cell line
[1] = 5 μM, normoxia and hypoxia (1% O2), 18 h

Question: For O=C1c2cc(-c3ccc(OC(F)(F)F)cc3)ccc2OCCN1Cc1ncccn1 [eleclazine, 4-(pyrimidin-2-ylmethyl)-7-(4-(trifluoromethoxy)phenyl)-3,4-dihydrobenzo[f][1,4]oxazepin-5(2H)-one], which effect on invasiveness [1] is on record?
Answer: Its effect on invasiveness is “significantly inhibited invasiveness”.

Question: For NC1=N[C@H](O)[C@H]2[C@H]3O[C@]4(O)O[C@@H]([C@@H](O)[C@@]2(N1)[C@@H]4O)[C@]3(O)CO [TTX, tetrodotoxin, reference compound], which effect on invasiveness is on record?
Answer: Its effect on invasiveness is “significantly inhibited invasiveness”.

Question: With COc1ccccc1OCC(O)CN1CCN(CC(=O)Nc2c(C)cccc2C)CC1 (stereo not drawn) [ranolazine, reference compound] as the molecule, how does the effect on invasiveness [1] read?
Answer: Its effect on invasiveness is “significantly inhibited invasiveness”.
